Experimental data taken from the supplement of paper PMC3334620.
Whole data set: some 33,000 sequences, median “E-score (-0.5 to 0.5)” near -0.056, cut for the highest 2% near 0.38. The list shows a part of the results.

Each sequence was assayed against Stb4 (UniProt P50104) (assay: PBM E-score (8-mer binding enrichment) (E-score (-0.5 to 0.5)); higher = stronger / more preferred TF binding; most listed sequences are background and not binding sites). Details: protein concentration: 200 nM; construct: GST-DNA-binding domain.
In short: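 PURExpress in vitro transcription/translation supplied GST-tagged yeast transcription factors, either full-length or DNA-binding domain. Applied at about 100-200 nM to universal all-10-mer Agilent arrays double-stranded by primer extension, the bound protein was detected with fluorescent anti-GST. E-scores, modified Wilcoxon-Mann-Whitney statistics, were given by the Universal PBM Analysis Suite to ungapped eight-base words pooled with their reverse complements after masliner normalisation.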

Sequence | PBM E-score
ATTCCAAC | -0.0549
CGTGCGTA | 0.0536
GCCAACCA | 0.00327
AGATTAGG | -0.115
AGCCGGAA | 0.395
AAACATTC | -0.143
GGCGGATA | 0.374
CGACGACC | 0.17
AAGGTTAA | -0.0619
CGCCTTCC | 0.183
ACGTAGCA | -0.158
AGCCTTTG | -0.254
AACGGAAT | 0.315
ACAGCCGA | 0.383
CGAGCACA | 0.175
GAATGTAA | 0.237
CGCGCTAA | -0.0373
GGCTGAGA | 0.0569
CGTCCTCA | -0.158
AAAAACAA | 0.178
GACAACTC | 0.119
CCATGGTC | -0.0447
ACCCCCTC | -0.235
ATGCAGAG | -0.146
ATGGCGAA | 0.00408

Sequence | PBM E-score
CCCCCGGC | 0.172
GATCCCGA | 0.417
ATATGGAG | -0.075
GTAAGGCA | -0.226
AGGTCCCG | 0.325
GTCCATCA | 0.00371
CACGGCTG | 0.131
GTACCGAA | 0.358
ACCGTACC | 0.205
ACGAATTC | -0.192
CGCACCAA | -0.0332
GGGATCGA | -0.0135
CTGGGAGA | -0.108
CAGCCCCC | -0.209
AGCTGGGG | -0.00585
ATCAGCGC | 0.0346
GCCTCCGA | 0.278
AGACACTG | -0.164
CCGCTCAA | 0.0048
CTGCATCA | -0.271
CCTACTTC | -0.119
AAAGGGGT | -0.27
AACAACGG | 0.106
ATATACAC | -0.126
AGTCAATG | -0.246

Sequence | PBM E-score
CTAAATAG | -0.203
GATCGGGA | 0.359
CCTGTGTC | -0.0491
AGGGGAAG | -0.173
CGTAGTAC | -0.0659
ATAGTTGC | -0.0884
CAGGTGGC | -0.216
TACAGAAA | -0.00236
CGTAGTCA | -0.208
CGACCTCC | 0.249
ACTTGAAT | 0.0633
ACCAGCCG | 0.256
GAGGATAC | -0.116
CCAGTTCA | -0.0458
AATCATTA | -0.324
CCTCAGTA | -0.0836
CGGCACCC | 0.216
CCGGTCAA | 0.158
CATCGCGA | -0.135
CAAGACTC | -0.117
AGCTCAAA | -0.0768
GGAGGAAC | -0.0445
CGGTCAAA | 0.106
ATAAGGCG | -0.0975
AGGCTTGA | -0.241

Sequence | PBM E-score
ATCTCAAG | -0.175
CGACGTGA | 0.061
CAGCCCTC | 0.0339
AGGCGGTG | -0.178
ACTAGCCG | 0.338
CCTCTGCA | -0.118
CTATGGCA | -0.225
TCATGCCA | -0.205
CCTACGAC | -0.165
CGCTGAGC | -0.209
TCGTAAAA | 0.0883
CCAACCAA | -0.12
ACACGGCC | 0.0659
CCGCGGGA | 0.32
ACCGTAAG | -0.0734
ACTAACTA | 0.0522
ATGGGCTA | -0.084
CCGGAGGA | 0.308
AAGTCTCG | 0.218
CAAAAGTA | -0.0702
GGTTTTTA | -0.0968
AGTTGGGC | -0.0616
GACCGAAA | 0.255
CTCTCCAA | -0.0833
CCGTTGAG | 0.0563

Sequence | PBM E-score
ATGGCACA | -0.023
TCTTTTAA | -0.0966
GTTGTACA | 0.0248
GGCCATGA | 0.0682
GCTTATGA | 0.027
GCCGTTGA | -0.036
ATAGCTAC | 0.0314
CCCGTTAA | 0.218
ACAATAAA | -0.035
ACGACGCT | -0.109
GCTCGAGA | -0.171
AACATTGG | -0.0812
AGGTGTTA | -0.165
AGACATCA | -0.0771
ACTGTCAC | -0.159
CAGGGTTA | -0.321
CGACGTCC | 0.131
TCTCTGCA | -0.153
AAGTTGTA | -0.0674
CCACATCG | 0.0865
CGGGGATA | 0.318
ACGCCACC | -0.163
ATAATTTG | 0.0149
AAACAACA | -0.169
CGATTATC | 0.15

Sequence | PBM E-score
TCTGAAGA | -0.135
AGATCTCA | -0.137
GCTCGATA | -0.0522
CGGGGTCC | 0.0929
GAGAACGA | -0.14
AAGGGTCG | 0.0413
AGGCATTA | -0.0811
CATCGACG | -0.136
GGCTGTAA | 0.0828
GTAGTGAC | 0.0365
CGCATCCA | -0.126
ATGGAGAA | 0.0294
AGAACGGA | 0.134
AGTCCGAC | 0.11
GGAAATAC | 0.285
AGCGTTAC | -0.129
CCTCGACA | -0.28
CTGTCAGA | -0.0204
CTACAGTA | -0.139
CTGCAATC | 0.111
ATCCGTAG | 0.312
TAAGATGA | -0.279
GACAATAC | -0.0821
ACTCAAAA | -0.0899
CACCTCGA | -0.0678

Sequence | PBM E-score
AGTCGTTC | -0.0994
AGATGGAT | -0.218
ATTAGAGG | 6e-05
ATTCTTAC | 0.0775
CCCAGGTC | -0.297
CCTGCGCC | -0.128
TCACTGAA | 0.025
AAAACTCG | 0.195
CATCTCTC | 0.112
CCCCAGAC | -0.207
ACGCAACG | -0.0199
ATATAGAC | -0.0901
CACCGTAA | -0.116
CGTAGCGA | 0.112
ACTCGAAT | -0.165
TCAGCGAA | -0.218
CAGCTTCA | -0.0402
ATTCTCCG | 0.264
AAACACGA | -0.0874
AGATTATA | -0.0494
CACACGAG | -0.252
ATTTTGTA | -0.0843
CCGCAAGG | -0.0145
ATTGCGGA | 0.207
GAGTCCAC | -0.196

Sequence | PBM E-score
CTAACGCA | -0.0661
AAAACTGA | -0.0831
GATGGCAC | 0.0406
AGTCTGAC | -0.232
GGTGGGTA | 0.0221
CGCGACCA | 0.0077
CACGATTA | -0.151
ATCCTTCG | 0.205
CGAGAAAA | 0.109
CTAATCGC | 0.00665
AGTAATAT | 0.109
CTCAGACC | -0.116
GTGAGGTA | -0.103
CAGCCACC | 0.0352
CAGGGCTC | -0.239
CACAAAAG | 0.0681
AAGACGCT | -0.192
TATGAACA | -0.173
GCGAGGCA | 0.0697
AAATGGAA | 0.0265
ATTTAATA | 0.229
GCGCTACC | 0.058
AAGAAGCA | -0.0165
TTATCAAA | -0.0823
CATAAAGA | -0.238

Sequence | PBM E-score
CTACGAAA | -0.134
AGCACCAC | -0.118
AATACCGT | 0.0892
CTCTGACA | -0.122
TCAGTACA | -0.116
GCCGTGCC | 0.158
ATGTTCCC | 0.153
AACTGCAA | -0.054
CACCGTGC | -0.0741
CCCGGACC | 0.26
CCGCGGAA | 0.352
CTTGAAGC | -0.104
GAACTCAC | -0.0382
ATAGGCGC | -0.0788
CCCCGTCA | 0.0967
ATTCCAGC | -0.0999
ACGTATAA | -0.145
ACCCCTAG | -0.369
CGGATGCA | 0.361
